Reference: the supplement of paper PMC4604168 (melanoma cell lines)
This is one part of the list. Most values come without repeats; read them as rough.

What was measured:
Assay in all cases: cell count relative to DMSO control; melanoma cells; higher = more viable cells
Settings in all cases: library dose: low library concentration; 72 h
MZ2-MEL = system: MZ2-MEL
MeWo = system: MeWo
RPMI7951 = system: RPMI7951
RVH-421 = system: RVH-421
SkMel28 = system: SkMel28
SkMel2 = system: SkMel2
SkMel30 = system: SkMel30
UACC62 = system: UACC62
WM115 = system: WM115
WM1716 = system: WM1716
WM1745 = system: WM1745
WM3526 = system: WM3526
WM3619 = system: WM3619
WM451Lu = system: WM451Lu
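Further: cell number obtained by counting DAPI-stained nuclei in high-throughput microscope images with image analysis software, screen run in 1,536-well plates.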

| Compound | cell count (MZ2-MEL) [%] | cell count (MeWo) [%] | cell count (RPMI7951) [%] | cell count (RVH-421) [%] | cell count (SkMel28) [%] | cell count (SkMel2) [%] | cell count (SkMel30) [%] | cell count (UACC62) [%] | cell count (WM115) [%] | cell count (WM1716) [%] | cell count (WM1745) [%] | cell count (WM3526) [%] | cell count (WM3619) [%] | cell count (WM451Lu) [%] |
| --- | --- | --- | --- | --- | --- | --- | --- | --- | --- | --- | --- | --- | --- | --- |
| C[C@]1(O)C[C@@H](c2nc(-c3ccc4ccc(-c5ccccc5)nc4c3)c3c(N)nccn32)C1 + C=C(c1ccc(C(=O)O)cc1)c1cc2c(cc1C)C(C)(C)CCC2(C)C [Bexarotene] (first compound 0.4 µM, partner dose 2 µM) | 94.9 | 89.9 | 69.6 | 95.5 | 68.6 | 71.6 | 99 | 98.1 | 110 | 86.4 | 62.7 | 76.6 | 85.4 | 89.8 |
| CCN(CC)CCNC(=O)c1c(C)[nH]c(/C=C2\C(=O)Nc3ccc(F)cc32)c1C [sunitinib] + Cn1c(Nc2ccc(C(F)(F)F)cc2)nc2cc(Oc3ccnc(-c4ncc(C(F)(F)F)[nH]4)c3)ccc21 [CHIR265] (first compound 0.4 µM, partner dose 0.08 µM) | 86.7 | 62 | 78.4 | 75.4 | 59.1 | 92 | 49.6 | 51.3 | 56.9 | 105 | 60.2 | 67.9 | 122 | 73.1 |
| C[C@]1(O)C[C@@H](c2nc(-c3ccc4ccc(-c5ccccc5)nc4c3)c3c(N)nccn32)C1 + Nc1ncn([C@H]2C[C@H](O)[C@@H](CO)O2)c(=O)n1 [decitabine] (first compound 0.4 µM, partner dose 0.1 µM) | 87.6 | 89.1 | 89 | 98.6 | 82.2 | 85.2 | 93.8 | 68.5 | 96.2 | 84.3 | 74.9 | 93 | 112 | 95.3 |
| Cn1cnc2c(F)c(Nc3ccc(Br)cc3Cl)c(C(=O)NOCCO)cc21 [selumetinib] + Nc1cccc2c1CN(C1CCC(=O)NC1=O)C2=O [lenalidomide] (first compound 0.015 µM, partner dose 1 µM) | 97.8 | 101 | 105 | 81.8 | 96.2 | 73.9 | 63.1 | 81.6 | 91.8 | 114 | 103 | 83.3 | 71.5 | 98.9 |
| CCN(CC)CCNC(=O)c1c(C)[nH]c(/C=C2\C(=O)Nc3ccc(F)cc32)c1C [sunitinib] + CC(=O)c1c(C)c2cnc(Nc3ccc(N4CCNCC4)cn3)nc2n(C2CCCC2)c1=O [palbociclib] (first compound 0.4 µM, partner dose 0.04 µM) | 87.9 | 75.2 | 88.8 | 115 | 78.5 | 93 | 64.2 | 79.1 | 82.7 | 97.6 | 71.5 | 76.3 | 99.9 | 81.7 |
| CCN(CC)CCNC(=O)c1c(C)[nH]c(/C=C2\C(=O)Nc3ccc(F)cc32)c1C [sunitinib] + Cc1cc(Nc2cc(N3CCN(C)CC3)nc(/C=C/c3ccccc3)n2)n[nH]1 [ENMD2076] (first compound 0.4 µM, partner dose 0.04 µM) | 118 | 88 | 112 | 115 | 112 | 110 | 85.7 | 99.4 | 96 | 164 | 97.4 | 83.8 | 115 | 125 |
| C[C@]1(O)C[C@@H](c2nc(-c3ccc4ccc(-c5ccccc5)nc4c3)c3c(N)nccn32)C1 + C[C@]1(c2nc3c(C(N)=O)cccc3[nH]2)CCCN1 [Veliparib] (first compound 0.4 µM, partner dose 1.4 µM) | 92.6 | 99.8 | 95.8 | 90 | 89.6 | 98 | 94.1 | 76.1 | 111 | 100 | 81 | 97.1 | 82.2 | 102 |
| COc1cc([C@@H]2c3cc4c(cc3[C@@H](O[C@@H]3O[C@@H]5CO[C@@H](C)O[C@H]5[C@H](O)[C@H]3O)[C@H]3COC(=O)[C@H]23)OCO4)cc(OC)c1O [etoposide] + COc1ccc(C2=N[C@@H](c3ccc(Cl)cc3)[C@@H](c3ccc(Cl)cc3)N2C(=O)N2CCNC(=O)C2)c(OC(C)C)c1 [Nutlin-3] (first compound 0.02 µM, partner dose 0.1 µM) | 102 | 98.9 | 102 | 74 | 92.9 | 91.2 | 84.5 | 95.4 | 89.8 | 105 | 96.9 | 77.3 | 87.9 | 112 |
| Cn1cnc2c(F)c(Nc3ccc(Br)cc3Cl)c(C(=O)NOCCO)cc21 [selumetinib] + NC(=O)c1ccc(N(C(N)=O)c2c(F)cccc2F)nc1-c1ccc(F)cc1F [VX702] (first compound 0.015 µM, partner dose 0.4 µM) | 89.9 | 89.7 | 116 | 70.7 | 63.4 | 74.3 | 49.2 | 70.4 | 90.1 | 114 | 81.2 | 64.7 | 87.1 | 92.1 |
| C[C@]1(O)C[C@@H](c2nc(-c3ccc4ccc(-c5ccccc5)nc4c3)c3c(N)nccn32)C1 + O=C(O)c1ccc2c(c1)nc(Nc1cccc(Cl)c1)c1ccncc12 [CX4945] (first compound 0.4 µM, partner dose 0.4 µM) | 91.6 | 89.4 | 110 | 80.8 | 109 | 80.9 | 74.6 | 91.5 | 98.6 | 97.4 | 84.7 | 79.2 | 97.4 | 86.8 |
| C[C@]1(O)C[C@@H](c2nc(-c3ccc4ccc(-c5ccccc5)nc4c3)c3c(N)nccn32)C1 + Cn1c(=O)n(-c2ccc(C(C)(C)C#N)cc2)c2c3cc(-c4cnc5ccccc5c4)ccc3ncc21 [NVP-BEZ235] (first compound 0.4 µM, partner dose 0.004 µM) | 91.2 | 68.7 | 82.7 | 107 | 72.4 | 71.2 | 56.8 | 66 | 88.5 | 90.5 | 77.4 | 79.6 | 80 | 87.1 |
| COc1cc([C@@H]2c3cc4c(cc3[C@@H](O[C@@H]3O[C@@H]5CO[C@@H](C)O[C@H]5[C@H](O)[C@H]3O)[C@H]3COC(=O)[C@H]23)OCO4)cc(OC)c1O [etoposide] + Nc1ccn([C@@H]2O[C@H](CO)[C@@H](O)C2(F)F)c(=O)n1 [gemcitabine] (first compound 0.02 µM, partner dose 0.0004 µM) | 91.1 | 85.9 | 87.8 | 100 | 86.5 | 92 | 92.9 | 86.2 | 83.5 | 88.6 | 86.5 | 83 | 84 | 77.3 |
| COc1cc([C@@H]2c3cc4c(cc3[C@@H](O[C@@H]3O[C@@H]5CO[C@@H](C)O[C@H]5[C@H](O)[C@H]3O)[C@H]3COC(=O)[C@H]23)OCO4)cc(OC)c1O [etoposide] + Cn1c(Nc2ccc(C(F)(F)F)cc2)nc2cc(Oc3ccnc(-c4ncc(C(F)(F)F)[nH]4)c3)ccc21 [CHIR265] (first compound 0.02 µM, partner dose 0.08 µM) | 71 | 62.3 | 65.6 | 70.8 | 49 | 67.5 | 52.1 | 44 | 56.3 | 71.4 | 58.5 | 54.8 | 73.3 | 84.8 |
| COc1cc([C@@H]2c3cc4c(cc3[C@@H](O[C@@H]3O[C@@H]5CO[C@@H](C)O[C@H]5[C@H](O)[C@H]3O)[C@H]3COC(=O)[C@H]23)OCO4)cc(OC)c1O [etoposide] + Clc1ccc(Nc2nnc(Cc3ccncc3)c3ccccc23)cc1 [vatalanib] (first compound 0.02 µM, partner dose 2 µM) | 91.4 | 83.2 | 93.4 | 98.7 | 82.6 | 86.8 | 110 | 79.7 | 92.9 | 82.6 | 104 | 94.5 | 98.2 | 99.1 |
| COc1cc([C@@H]2c3cc4c(cc3[C@@H](O[C@@H]3O[C@@H]5CO[C@@H](C)O[C@H]5[C@H](O)[C@H]3O)[C@H]3COC(=O)[C@H]23)OCO4)cc(OC)c1O [etoposide] + Cc1ccc(Nc2nccc(N(C)c3ccc4c(C)n(C)nc4c3)n2)cc1S(N)(=O)=O [Pazopanib] (first compound 0.02 µM, partner dose 0.4 µM) | 71.1 | 101 | 99.4 | 96.5 | 99.2 | 97.1 | 72.7 | 82.6 | 90.4 | 88.7 | 94.6 | 83 | 71.9 | 101 |
| COc1cc([C@@H]2c3cc4c(cc3[C@@H](O[C@@H]3O[C@@H]5CO[C@@H](C)O[C@H]5[C@H](O)[C@H]3O)[C@H]3COC(=O)[C@H]23)OCO4)cc(OC)c1O [etoposide] + C[C@]1(O)C[C@@H](c2nc(-c3ccc4ccc(-c5ccccc5)nc4c3)c3c(N)nccn32)C1 [OSI906] (first compound 0.02 µM, partner dose 0.4 µM) | 85.4 | 89.3 | 87.7 | 93.2 | 81.5 | 79.7 | 77.3 | 82.7 | 86 | 85.6 | 79.2 | 94 | 87.2 | 73.7 |
